In all, about 360,000 compounds went through this assay and about 6,000 (1.7%) were called active. Inconclusive means that the source gave no clear call. Such entries were picked first, then a sample of the others. The call rests on the fitted dose curve; in most records, active means well fitted cell-killing curve with a large enough effect; inconclusive means small, poorly fitted or top-dose-only effect, or effect the other way; inactive means flat fitted curve, though single readings scatter. No potency is given beside an inconclusive call; the fits are too rough. Where a structure was tested more than once in an assay, its records may differ in their call.
Experiment: qHTS for induction of synthetic lethality in tumor cells producing 2HG: qHTS for the HT-1080-NT fibrosarcoma cell line;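 further: NT is the 2HG producing partner of a matched IDH1 knockdown line; nearly all actives have a fitted effect of over 55% in size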;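 on activity, negative = less viability: 0% = DMSO-treated cells and -100% = media-only wells without cells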
Conditions: HT-1080-NT fibrosarcoma viability, CellTiter-Glo ATP luminescence, 48 h; activity, negative = less viability: at 46.1 µM (top of the series) unless noted
In short: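 Toxicity toward the 2HG-producing NT line was scored as %Activity, normalised to DMSO and no-cell wells, from CellTiter-Glo luminescence after 48 hours' treatment.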
For CC(C)n1cnc2c(NCc3ccccc3)cc(N[C@H](C)CO)cc21, the Potency was active: 23.1 µM.
In the case of COc1ccccc1C=NNC(=O)NN=Cc1ccccc1OC, the Potency is reported as “inactive”.
For CCOC(=O)c1cnc2c(C)c(Cl)ccc2c1N1CCN(CC)CC1, the Potency was active: 14.6 µM.
In the case of COc1ccc2ccccc2c1CN1CCN(Cc2ccccc2)CC1, the Potency is reported as inconclusive [cytotoxic, single point].
In the case of CC1(C(=O)Nc2ccc3c(c2)OCCO3)CC1(Cl)Cl (centres undefined), the Potency is reported as inconclusive [rising, single point].
In the case of Cc1ccc(NC(=O)N2CCc3ccccc3C2)cc1C, the Potency is reported as inconclusive [rising, full curve].
For CCc1nc(Sc2nc(C)cc(C)n2)c2oc3ccccc3c2n1, the Potency was inconclusive [cytotoxic, single point].
For COc1ccc(/C=N/NC(=O)c2ccoc2C)cc1COc1c(C)cccc1C, the Potency was active: 4.61 µM.
In the case of COc1ccc(Cc2nnc(SCC(=O)N(C)CC(=O)Nc3ccc(C)cc3)o2)cc1, the Potency is reported as “inactive”.
With CCCNC(=O)c1ccc(C)c(NC(=O)C2=C(C)OCCS2)c1 the Potency was inconclusive [rising, single point].
With CN(C(=S)NC(=O)c1ccccc1Br)C1CCCCC1 the Potency was active: 1.58 µM.
For NC(c1csc(Nc2nccc(C(F)(F)F)n2)n1)C1CCCCC1 (centres undefined), the Potency was active: 20.6 µM.
In the case of Cc1[nH]n(-c2ccccc2)c(=O)c1/C=N/NC(=O)c1cccc(F)c1, the Potency is reported as active: 10.3 µM.
With C=CC(=O)N=c1sc2ccccc2n1-c1ccccc1 the Potency was active: 13 µM.
With COc1ccc(OCc2nnc(SCC(=O)Nc3ccccc3Cl)o2)cc1 the Potency was “inactive”.
For CC(=O)Nc1ccc(S(=O)(=O)Nc2ccc(S(=O)(=O)N3CCCCCC3)cc2)cc1, the Potency was “inactive”.
In the case of COc1ccc(C=C2C=C(C(C)(C)C)C(=O)C(C(C)(C)C)=C2)cc1OC, the Potency is reported as active: 11.6 µM.
In the case of CCc1cccc(N(C(=O)c2csnn2)C(C(=O)NC2CCCCC2)c2ccncc2)c1 (centres undefined), the Potency is reported as “inactive”.
With CCN(CC)Cc1cc2[nH]c3c4ccc(Cl)cc4ncc3c2cc1OC the Potency was active: 22.4 µM.
In the case of COc1cccc(NC(=O)Cn2cc(C=O)c3ccccc32)c1, the Potency is reported as “inactive”.
For Cc1ccc(NC(=O)c2ccc(N/N=C/c3cccc(O)c3)c([N+](=O)[O-])c2)cc1, the Potency was active: 7.31 µM.
For Cc1nnc(NC(=O)c2oc3ccccc3c2C)s1, the Potency was “inactive”.
In the case of CCCOc1ccc(N2C(=O)CC(N(Cc3ccc(OC)cc3)C(=S)Nc3ccccc3)C2=O)cc1 (centres undefined), the Potency is reported as “inactive”.
For Cn1cc([N+](=O)[O-])c(C(=O)Nc2nc(-c3ccc(Cl)cc3)cs2)n1, the Potency was active: 2.91 µM.
For CCOc1ccc(CN2CCN(C(=O)c3cccc(F)c3)CC2)cc1, the Potency was inconclusive [cytotoxic, single point].
With O=C1N(Cc2cccc(Cl)c2)C[C@@H]2C[C@@H](c3cccc4cccnc34)N3CCC[C@@]123 the Potency was inconclusive [cytotoxic, partial curve].
For CCN(CC)C(=O)C1=C(C)N(Cc2ccc(C(C)(C)C)cc2)C(=O)C(CC(=O)NC(c2ccccc2)c2ccccc2)C1 (centres undefined), the Potency was inconclusive [cytotoxic, single point].
With Cc1cccc(-c2oc3ccc(-c4ccc5c(c4)OCO5)cc3c2/C=C/c2ccc(N)cc2)c1 the Potency was inconclusive [cytotoxic, single point].
For O=[N+]([O-])c1ccc(O)c(/C=N/Nc2ncnc3c2cnn3-c2ccccc2)c1, the activity, negative = less viability was inconclusive: -36.2% [cytotoxic].
For Cc1ccc(C)c(N2CCN(C(=O)C3CCC3)CC2)c1, the Potency was “inactive”.
For CCOC(=O)c1c(NC(=O)CSc2c[nH]c3ccccc23)sc2c1CCCC2, the Potency was inconclusive [cytotoxic, single point].
For C=CCN=c1scc(-c2ccco2)n1/N=C/c1ccc(O)c(O)c1O, the Potency was inconclusive [cytotoxic, partial curve].
For COc1ccc(S(=O)(=O)NCc2cccnc2)cc1Br, the Potency was “inactive”.
With CCCc1cc(=O)oc2cc(C)cc(OC(C)C(=O)NCc3cccnc3)c12 (centres undefined) the Potency was “inactive”.
With O=C(/C=C/c1ccc(Br)cc1)c1ccc(NC(=O)c2ccco2)cc1 the Potency was inconclusive [cytotoxic, single point].
In the case of COc1ccc(NC(=O)c2ccc(CN3CCc4ccccc4C3)cc2)c(OC)c1, the Potency is reported as “inactive”.
With COc1ccc(-c2sc3cc4c(cc3c2C#CC2(N)CCCCC2)OCO4)cc1 the Potency was inconclusive [cytotoxic, single point].
For COc1cc([N+](=O)[O-])cc(/C=N/NC(=O)C(C)Nc2cccc3ccccc23)c1O (centres undefined), the Potency was inconclusive [cytotoxic, single point].
In the case of CCN1C(=O)[C@H]2[C@H]3CN=C(SCc4ccc(Cl)cc4)N3[C@@](Cc3ccccc3)(C(=O)OC)[C@H]2C1=O, the Potency is reported as inconclusive [cytotoxic, single point].
With CCn1cc(CNCc2ccc(OCC(O)CN(C)Cc3ccccc3)cc2)cn1 (centres undefined) the Potency was “inactive”.
In the case of COc1ccc(S(=O)(=O)N2CCN(C3CCN(Cc4ccccc4)CC3)CC2)cc1, the Potency is reported as “inactive”.
For CCCOc1ccc(F)cc1-c1cc(C(=O)Nc2ccc(C)c(NS(C)(=O)=O)c2)[nH]n1, the Potency was inconclusive [cytotoxic, partial curve].
In the case of CCCN1C2CCCC1CC(NC(=S)Nc1ccc(OC)cc1)C2 (centres undefined), the Potency is reported as “inactive”.
In the case of O=C(OCc1cccc([N+](=O)[O-])c1)c1cccnc1, the Potency is reported as inconclusive [rising, single point].
For Cc1cc(C)nc(SCCCNCc2ccc(Br)cc2)n1, the Potency was inconclusive [cytotoxic, partial curve].
In the case of COc1ccc2nc3c(cc2c1)c(NC(=O)c1cccs1)nn3CC(C)C, the Potency is reported as inconclusive [cytotoxic, single point].
With COc1ccc(C(=O)OCC(=O)NCC2CCCO2)c(F)c1 (centres undefined) the Potency was “inactive”.
In the case of COCCNc1nc(NCc2ccccc2OC)c2sccc2n1, the Potency is reported as inconclusive [cytotoxic, partial curve, poor fit].
With CC1(C)Cc2c(c(N3CCCC3)nc3sc4c(N5CCN(CCO)CC5)ncnc4c23)CO1 the Potency was inconclusive [cytotoxic, single point].

Source: PubChem BioAssay AID686970 (National Center for Advancing Translational Sciences (NCATS), 2013)
Potency means the concentration at half of the fitted maximal effect; tags describe the fitted curve by direction and shape.
